Reference: the BET-seq Pho4 binding data (Le et al. 2018)
The list shows a part of the results. Values were computed here from the reads of four pooled replicates and scatter widely.

Molecular target: T1, Pho4 (S. cerevisiae) (UniProt P07270)
T1 sequence: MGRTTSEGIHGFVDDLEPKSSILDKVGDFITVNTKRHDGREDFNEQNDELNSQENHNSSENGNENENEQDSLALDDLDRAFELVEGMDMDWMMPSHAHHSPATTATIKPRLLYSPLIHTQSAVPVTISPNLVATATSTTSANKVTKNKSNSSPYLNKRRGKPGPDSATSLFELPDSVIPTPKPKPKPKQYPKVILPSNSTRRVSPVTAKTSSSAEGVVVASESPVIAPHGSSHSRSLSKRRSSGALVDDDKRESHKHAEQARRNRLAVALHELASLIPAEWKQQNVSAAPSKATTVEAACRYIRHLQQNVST
Experiment: relative binding free energy (BET-seq); higher = weaker binding
Conditions: reference: library average

Sequence	relative binding free energy [kcal/mol]
ATAAGCACGTGAGTTG	0.07
ACAGTCACGTGATGTT	0.17
GTTGGCACGTGTTTAT	-0.05
AGATGCACGTGTGGTG	-0.07
AACGTCACGTGTGGTG	0.11
TATTGCACGTGTGGTT	0.09
GGGCGCACGTGTTAAG	0.1
GGGAACACGTGAGGGC	0.26
GGGTGCACGTGCCGGC	-0.11
GTGGACACGTGCCGGG	-0.12
TGGTTCACGTGAGTGT	0.33
TCTGCCACGTGTAGGT	-0.04
GGATTCACGTGGTAGC	0.29
AGGGTCACGTGGTTAT	0.06
GTAACCACGTGGGGCG	-0.1
GTGGCCACGTGGGCGC	-0.13
TGAAGCACGTGGGCGG	-0.16
GGGCTCACGTGTAGTG	0.21
ATGTTCACGTGGTCAG	0.01
CTAGACACGTGGGGAT	-0.1
ATTGCCACGTGTAAGT	0.1

Sequence	relative binding free energy [kcal/mol]
GGCGTCACGTGGTGGG	0.09
TTGCTCACGTGAGGGA	0.41
ATAGGCACGTGGGGAC	-0.26
TGTATCACGTGCTGTG	-0.04
TTGGACACGTGTGTCA	0.11
GGTCGCACGTGGTGCA	-0.17
CTTGTCACGTGTATGA	-0.04
GGTGTCACGTGATGAG	0.28
ATATACACGTGCGTTT	-0.12
ATAGTCACGTGAAATT	0.3
AGAGGCACGTGAAGTA	0.12
AATAGCACGTGGTTTG	-0.09
TCTAGCACGTGCGGTT	-0.08
GTGTGCACGTGAAAGA	0.18
GTGCTCACGTGCATGG	0.08
GGTGGCACGTGATTCG	0.11
GTGGGCACGTGGTACT	-0.14
GTGTTCACGTGTAGTA	0.29
GCTTTCACGTGTAAGG	0.45
GGGTCCACGTGAGGTA	0.21
ATGTTCACGTGTTAAG	0.13

Sequence	relative binding free energy [kcal/mol]
TGCAGCACGTGTGGGT	-0.1
CTGTGCACGTGTGTAG	-0.09
TGATTCACGTGGTTCA	0.38
TGACTCACGTGGTGTG	0.18
GGGGACACGTGGGTCT	-0.15
AGTTTCACGTGTACGT	0.27
ACTTTCACGTGTTGAG	0.14
TCGTGCACGTGAGGGA	0.09
ACTTTCACGTGGGGAA	0.21
AAGGGCACGTGGGTGC	-0.2
GAGGGCACGTGCATTG	-0.15
TTATACACGTGCTAGT	-0.06
CCTAGCACGTGGTGGG	-0.22
TTCCTCACGTGGTTGG	0.26
ATCGACACGTGTGGAT	0.13
GAGAGCACGTGTGAGA	0.1
TTATTCACGTGTGACT	0.2
GGTCACACGTGGATTA	0.15
AAGCGCACGTGGTAGT	-0.18
TTGGACACGTGGCGGA	0.1
GGATTCACGTGTTGCT	0.29
